In PubChem BioAssay AID463173 (ICCB-Longwood Screening Facility, Harvard Medical School, 2010):
The whole screen tested about 52,000 compounds, of which about 4,300 (8.3%) were called active. Cut-off read from the data, not from the text of the source: active = survival mostly below about 52% (no sharp cut-off); inactive = mostly above about 56%. The list shows a part of the results.

test system: DeltatarO mutant; assay: S. aureus survival, RN4220 and DeltatarO strains – OD600, teichoic acid synthesis inhibitors, primary screen (AID 463173); conditions: S. aureus RN4220 wild type/DeltatarO growth, OD600, 18 h, active compounds read low, screened at 18.75 µg/mL (by protocol)

How did the survival turn out when CN(C)C(=O)N1CCN(S(=O)(=O)c2ccccc2)CC1 was run?
The survival was inactive: 113%.

For COc1ccc(NC(=O)c2sc3nc4c(cc3c2N)CCCCCC4)c(OC)c1, which survival is on record?
The survival was inactive: 62%.

With COc1cc(N2C(=O)CSC23C(=O)N(Cc2cccc(F)c2)c2ccccc23)cc(OC)c1OC (centres undefined) as the compound, how does the survival read?
The survival was inactive: 86%.

With CCN(CC)CCNC(=O)CN1C(=O)COc2ccc(S(=O)(=O)N3CCOCC3)cc21 as the compound, how does the survival read?
Its survival is inactive: 93%.

With CCOC(=O)Cn1c(=O)n(CC2CCCO2)c2nc(-c3ccc(OCC)cc3)nc(C(N)=O)c21 (centres undefined) as the compound, how does the survival read?
The survival was active: -2%.

For Cc1ccc(Cl)cc1Nc1sc(C(=O)c2ccc(F)cc2)c(N)c1S(C)(=O)=O, which survival is on record?
Its survival is inactive: 72%.

CS(=O)c1nc(-c2cccs2)cc(-c2ccccc2)c1C#N (centres undefined) was tested. Which survival did it give?
The survival was inactive: 73%.

CCCc1nnc(SCC(=O)NC2CC2)n1CC was tested. Which survival did it give?
The survival was inactive: 56%.

Which survival does the source give for CCN1CC2CCCC3(C1)C(=O)NC1(CCCCC1)N=C23 (centres undefined) here?
Its survival is inactive: 74%.

With CCOc1ccc(CNCCCSc2nnnn2C)cc1OC as the compound, how does the survival read?
Its survival is inactive: 74%.

With O=C(CSc1nc(=O)n(Cc2ccco2)c2c1CCC2)Nc1cccc(F)c1 as the compound, how does the survival read?
Its survival is inactive: 90%.

With COc1cccc(CNC(=O)Cc2csc3nc(-c4ccccc4)cn23)c1 as the compound, how does the survival read?
The survival was inactive: 83%.

With COc1ccccc1OCc1nnc(-c2ccccc2)o1 as the compound, how does the survival read?
The survival was inactive: 53%.

Which survival does the source give for CCCCOC(=O)c1ccc(OC(=O)c2sc3ncn(Cc4ccccc4Cl)c(=O)c3c2C)cc1 here?
Its survival is inactive: 90%.

N#Cc1nc2ccccc2[nH]1 was tested. Which survival did it give?
The survival was inactive: 92%.

How did the survival turn out when COc1ccccc1CNC(=O)c1cnc(N(C)C)nc1 was run?
Its survival is inactive: 78%.

With COc1ccc(CC(=O)Nc2sc3c(c2C(=O)Nc2cccc(C)c2)CCCCC3)cc1 as the compound, how does the survival read?
Its survival is active: 43%.

Which survival does the source give for Cc1ccccc1Nc1c(-c2ccc(Br)cc2O)nc2sccn12 here?
Its survival is inactive: 64%.

With CCOc1ccc(NC(=O)Cn2cc(C(=O)c3ccc(OC)cc3)c(=O)c3cc4c(cc32)OCO4)cc1 as the compound, how does the survival read?
Its survival is inactive: 83%.

COc1ccccc1N1CCN(C(c2ccc(Cl)cc2)c2nnc(-c3cccc(F)c3)o2)CC1 (centres undefined) was tested. Which survival did it give?
The survival was inactive: 62%.

O=C(Nc1ccc(Cl)c(-c2nc3ccccc3o2)c1)c1ccc(-c2cccc([N+](=O)[O-])c2)o1 was tested. Which survival did it give?
Its survival is active: 37%.

For Cc1ccc(Nc2cc(C)nc(-n3nc(C)cc3C)n2)cc1, which survival is on record?
Its survival is inactive: 115%.

How did the survival turn out when O=C(Nc1ccc(OC(F)(F)F)cc1)C1CCN(S(=O)(=O)c2ccc3[nH]c(=O)ccc3c2)CC1 was run?
Its survival is inactive: 92%.

With Cc1ccc(N2CC(C(=O)NCCS(=O)(=O)N3CCN(c4ccccc4F)CC3)CC2=O)cc1 (centres undefined) as the compound, how does the survival read?
The survival was inactive: 80%.

Cc1ccc(NC(=O)CSc2nc3ccc(Br)cc3[nH]2)c(C)c1 was tested. Which survival did it give?
Its survival is active: 42%.

For CCn1c(CNc2ccc(C)cc2)nnc1SCc1ccccc1, which survival is on record?
The survival was inactive: 115%.

CC1=C(c2ccc(C(C)C)cc2)S(=O)(=O)NC1=NCc1ccccc1C was tested. Which survival did it give?
Its survival is inactive: 77%.

With CN(C)CCN(C(=O)c1ccco1)c1nc2c(F)cc(F)cc2s1 as the compound, how does the survival read?
Its survival is inactive: 72%.

How did the survival turn out when CC1CCN(C(=O)CSc2c3c(nc4ccc(Cl)cc24)CCCC3)CC1 was run?
The survival was active: 0%.

How did the survival turn out when O=C(COc1ccc(F)cc1)Nc1nnc(S(=O)(=O)N2CCc3ccccc32)s1 was run?
The survival was active: 17%.

With CCOc1ccc(N(Cc2ccccc2)C(=O)c2nc(SCC)ncc2Cl)cc1 as the compound, how does the survival read?
The survival was inactive: 106%.

How did the survival turn out when Cc1cccc(NC(=O)CSc2nc3ccccc3nc2N2CCC(C)CC2)c1 was run?
The survival was active: 8%.

With Cc1ccc(-n2nc(C(=O)N3CCN(c4ccc(F)cc4)CC3)c(=O)n(C)c2=O)cc1 as the compound, how does the survival read?
The survival was inactive: 67%.

With COc1ccc2nc(NC(=O)c3nc(S(=O)(=O)Cc4ccccc4F)ncc3Cl)sc2c1 as the compound, how does the survival read?
Its survival is inactive: 61%.

For Cc1ccc(-c2noc(CNC(=O)COc3cc(C)c(Br)c(C)c3)n2)cc1, which survival is on record?
The survival was inactive: 80%.

For CCOCCc1nnc(NC(=O)C(=O)c2cc(C)n(-c3cccc(C)c3)c2C)s1, which survival is on record?
Its survival is inactive: 65%.

For CCOc1ccc(CNC(=O)c2ccc3c(c2)sc2nc(-c4ccccc4)cn23)cc1, which survival is on record?
Its survival is inactive: 74%.

How did the survival turn out when O=C(NC1CCCCC1)c1ccc2c(c1)N(Cc1cccc(F)c1)C(=O)c1ccccc1S2 was run?
Its survival is inactive: 88%.

Which survival does the source give for O=C(NC1CCCCC1)c1ccc2c(c1)sc1nc(-c3ccc(F)cc3)cn12 here?
The survival was inactive: 62%.

CCCCc1nn2c(=O)cc(COC(=O)c3cccc(NC(=O)c4cccc(Cl)c4)c3)nc2s1 was tested. Which survival did it give?
Its survival is inactive: 77%.

How did the survival turn out when Cc1ccc(CNC(=O)c2ccc(CS(=O)(=O)Cc3ccc(F)cc3)o2)cc1 was run?
The survival was inactive: 77%.

For Cc1ccccc1CN1CCc2nc(N3CCN(c4ncccn4)CC3)ncc2C1, which survival is on record?
Its survival is inactive: 88%.

For CCOc1nc(-c2ccccc2)cc(-c2ccccc2)n1, which survival is on record?
The survival was inactive: 69%.

How did the survival turn out when CCCCCC[N+]1(CCO)CCOCC1 was run?
Its survival is inactive: 81%.

COc1ccc(CCCc2nnc(SCC(=O)Nc3cccc(C)c3)o2)cc1C was tested. Which survival did it give?
The survival was inactive: 80%.

With CCCCN(C)CCCNC(=O)Cn1ncc2c3ccccc3n(Cc3cccc(Cl)c3)c2c1=O as the compound, how does the survival read?
The survival was inactive: 85%.

For CCOc1ccccc1C(=O)Oc1c(S(=O)(=O)c2ccc(C)cc2)c(C)nn1-c1ccccc1, which survival is on record?
Its survival is inactive: 88%.

How did the survival turn out when Cc1cccc(N2CCN(S(=O)(=O)c3cn(C)c(C)n3)CC2)c1C was run?
The survival was active: 0%.

With NC(=O)c1cc2c([nH]c1=O)CCCCCCCCCC2 as the compound, how does the survival read?
Its survival is inactive: 104%.

COc1ccc(NCc2cc3cc4c(cc3n(CC(=O)Nc3cccc(F)c3)c2=O)OCO4)cc1 was tested. Which survival did it give?
The survival was inactive: 112%.

For O=C(O)CCC(=O)Nc1ccccc1O, which survival is on record?
The survival was inactive: 80%.

With c1ccc2c(c1)[nH]c1c(N3CCOCC3)ncnc12 as the compound, how does the survival read?
Its survival is inactive: 68%.

Which survival does the source give for COC(=O)c1ccc(CSc2nc3c([nH]c4ccccc43)c(=O)n2-c2ccc(F)cc2)o1 here?
The survival was inactive: 80%.

With Clc1ccccc1N1CCN(Cc2nnc(-c3ccccc3)o2)CC1 as the compound, how does the survival read?
Its survival is inactive: 50%.

Which survival does the source give for O=C(Cn1c(=O)n(-c2ccccc2)c(=O)c2ccc(C(=O)NCc3ccc4c(c3)OCO4)cc21)Nc1ccc(F)cc1 here?
Its survival is inactive: 64%.

How did the survival turn out when Cc1ccc(Cl)cc1-n1c(CCC(=O)O)ccc1-c1cccs1 was run?
The survival was active: 38%.

Which survival does the source give for COc1cc(OC)c(NC(=O)Cn2c(=O)c(C(F)(F)F)nc3ccccc32)cc1Cl here?
Its survival is inactive: 66%.

Which survival does the source give for CCc1cccc(NC(=O)Cn2c(=O)n(-c3ccccc3C)c(=O)c3c2c2cc(C)ccc2n3C)c1 here?
Its survival is inactive: 85%.

For CCc1ccc(C2CC(=O)c3c([nH]c(C(=O)OC4CCC(C)CC4)c3C)C2)cc1 (centres undefined), which survival is on record?
Its survival is inactive: 89%.
